The chains are these.
B1: CPEB3 Ribozyme (parent)
chain: UAACAGGGGGCCACAGCAGAAGCGUUCACGUCGCAGCCCCUGUCAGAUUCUGGUGAAUCUGCGAAUUCUGCUGUAUAUCUC

The source gives no read counts; variants with many changes may rest on few reads.

Variants of B1 are the subject of this series. Description: self-cleavage, relative activity (ratio to wild type); higher = more cleavage; in vitro, sequencing. A digest of the protocol: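 Libraries of CPEB3 self-cleaving ribozyme mutants came from rounds of error-prone PCR and carried barcodes, which DNA sequencing matched to variants. In vitro transcription used T7 RNA polymerase at 37°C for 5 hours, with a further 15 min in DNase I before EDTA stopped the reaction; the ribozymes cleaved during both steps. The RNA was reverse transcribed with template switching and sequenced on Illumina. Relative activity is the cleaved/total read fraction of a variant divided by that of the unmutated ribozyme, averaged over three batches with at least 5 reads.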
UAACAGGGGGCCACAGCAGAAGCGUUCACGUCGCUGCCCCUGUCAGAUCCUGGUGAAUCUGCGAAUUCUGCUGUAUACCUC: the self-cleavage came out at 0.21. As to UAACAGGGGGCCACAGCAGAAGCGUUCACGUCGCAGUCUCUGUCAGAUUCAGGUGAAUAUGCGAAUUCUGCUGUAUAUCCC, the self-cleavage is 0.11. Consider UAACAGGGGGCCACAGCAGAAGCGUUCACGUCGCAGUCCCUGUCAGCUUCUGGUAGAUCUGCGAAUUCUGCUGUAUAUCUC, for which the self-cleavage was determined as 0.09. To UAACAGGGGGCCACAGCAGAAGCGUUCACGUCGCAUCCCCUGUCAGAUUCUGGUGAAUCAGCGAAUUCUGCUGUAUAUAUC belongs 0.14; to UAACAGGGGGCCACAGCAGAAGCGUUCACGUCGCAACCCCUGUCAGAUUCUGGAGGAUCUGCGAAUUCUGCUGUAUAUCUC, 0.14; to UAACAGGGGGCCACAGCAGAAGCGUUCACGUCGCUGCCCCUGUCAGAUUCUGGUGAAUCCGCGAACUCUGCUGUAUAUCUC, 0.13.

UAACAGGGGGCCACAGCAGAAGCGUUCACGUCGCUGCCCCUGUCAGAUUCUGGUGAACCCGCGCAUUCUGCCGUACAUCUC: the self-cleavage is 0.15.

Take UAACAGGGGGCCACAGCAGAAGCGUUCACGUCGCAGACCCAGUCAGAUUCUGGUGAAUCUGCGAGUUCUGCUGUAUAUCUC: the self-cleavage stood at 0.32. To UAACAGGGGGCCACAGCAGAAGCGUUCACGUCGCAGUCCCUGCCAGAUGCAGGUGAAUCUGCGAGUUCUGCUGUAUAUCUC belongs 0.07. To UAACAGGGGGCCACAGCAGAAGCGUUCACGUCGCAGACCCUGCCAGAUUCUGGUGGAUCUGCGAAUUCUGCUGUAUAUCUC belongs 0.17; to UAACAGGGGGCCACAGCAGAAGCGUUCACGUCGCUGCCCCUGUCAGAUUCUGGAGUAUCUGCGAAUUCUGCUGUAUACCUC, 0.17; to UAACAGGGGGCCACAGCAGAAGCGUUCACGUCGCAUCCCCUGCCAGAUUCUGGUGAAUCCGCGAAUUCAGCUGUAUAUCUC, 0.25. For UAACAGGGGGCCACAGCAGAAGCGUUCACGUCGCAUUCCCUGUCAGAUUCAGGUGAAUCUACGAAUUCUGCUGUAUAUCUC, the self-cleavage worked out at 0.15.

In the case of UAACAGGGGGCCACAGCAGAAGCGUUCACGUCGCAGACCCUGCCAGAUUCAGGUGAAUCUGCGAAUUCUGCUGUAUAACUC, the self-cleavage is 0.14. To UAACAGGGGGCCACAGCAGAAGCGUUCACGUCGCUGCCCCUGUCAGAUCCUGGUGAAUCUGCGAAUUCUGCUGUACAUCUC belongs 0.26; to UAACAGGGGGCCACAGCAGAAGCGUUCACGUCGCUGCCCCUGUCAGAUCCUGGUGAUUCUGCGAAUUCUGCUGUAUAUCUC, 0.16; to UAACAGGGGGCCACAGCAGAAGCGUUCACGUCGCUGCCCCUGUCAGAUUCUGGUGAAUCCGCGAAUUCUGCAGUAUAUCUC, 0.31. With UAACAGGGGGCCACAGCAGAAGCGUUCACGUCGCAGACCGCGCCAGAUUUUGGUGAAACUGCGAAUUCUGCUGUACAUCUC, the self-cleavage was found to be 0.06. UAACAGGGGGCCACAGCAGAAGCGUUCACGUCGCAGUCCCUGUCAGAUUCUGGUGAACCUGCGAAUUCUGCAGUAUAUCUC: the self-cleavage is 0.48. As to UAACAGGGGGCCACAGCAGAAGCGUUCACGUCGCAGUCCCUGUCAGAUUCUGGUGGAUCUGCGAAUUCUGCUGUUUAUCUC, the self-cleavage worked out at 0.79. To UAACAGGGGGCCACAGCAGAAGCGUUCACGUCGCAGUCCCUGUCAGAUUCUGGAGAAUCUGCGUAUUCCGCUGUAUAUCUC belongs 0.29; to UAACAGGGGGCCACAGCAGAAGCGUUCACGUCGCUGCCCCUGUCAGAUCCUGGCGAAUCUGCGAAUUCUGCCGCAUAUCUC, 0.07; to UAACAGGGGGCCACAGCAGAAGCGUUCACGUCGCAGGCCCUGUCAGAUUCUGGUGAGUCUGCGGAUUCUCCUGUAUAUCUC, 0.12. Consider UAACAGGGGGCCACAGCAGAAGCGUUCACGUCGCUGCCCCUGUCAGAUCCUGGUGAAUCUUCGAAUUCUGCUGUAUAUCUC, for which the self-cleavage worked out at 0.21.

For the variant UAACAGGGGGCCACAGCAGAAGCGUUCACGUCGCAACCCCUGUCAGAUCCUGGUGAAUCUGCGAAUUCUGCUGUAUAUCCC, the self-cleavage worked out at 0.19. As for UAACAGGGGGCCACAGCAGAAGCGUUCACGUCGCAGUCCCUGUCAGAUUGUGGUGAAUCUGCGAUUUCUGCUGUAUAUCUC, the figure is 0.11; as for UAACAGGGGGCCACAGCAGAAGCGUUCACGUCGCUGCCCCUGUCAGAUUCCGGUGAAUCUGCGAACUCUGCUGUGUAUCUC, 0.46; as for UAACAGGGGGCCACAGCAGAAGCGUUCACGUCGCAACCCCUGUCAGAUCCUGGUGAGUCUGCGACUUCUGCCGUAUAUCUC, 0.1. As to UAACAGGGGGCCACAGCAGAAGCGUUCACGUCGCAGUCCCUGUCAGAUUCUGGUGAAUCUGCGAAUACUGCUGUGUAUCUC, the self-cleavage was 0.42. On to UAACAGGGGGCCACAGCAGAAGCGUUCACGUCGCACCCCCCGUCAGGUUCUGGUGAAUCUGCGAAUUCUGCUGUAUAUCUC, for which the self-cleavage came to 0.28. As to UAACAGGGGGCCACAGCAGAAGCGUUCACGUCGCAUCCCCUGACAGAUUCGGGUGAAUCUGCGAAUUCUGCUGUAUAUCUC, the self-cleavage worked out at 0.17. As for UAACAGGGGGCCACAGCAGAAGCGUUCACGUCGCAACCCCUGUCAGAUCCUGGUGAAUCUGCGGAUUCUGCAGUAUAUCUC, the figure is 0.5; as for UAACAGGGGGCCACAGCAGAAGCGUUCACGUCGCAGGCCCUUUCAGAUUCUGGUGAAUCAGCGAAUUCUGCUGUAUAUCUC, 0.43. UAACAGGGGGCCACAGCAGAAGCGUUCACGUCGCAGUCCCUGUCAGAUUCUGGUAAAUCUGCGAAUCCGGCUGAAUAUCUC: the self-cleavage turned out to be 0.1. As for UAACAGGGGGCCACAGCAGAAGCGUUCACGUCGCAGACCCCGUCAGAUUCUGGCGAAUCUGCGAAUUCUGCUGUAUACCUC, the self-cleavage stood at 0.16. In the case of UAACAGGGGGCCACAGCAGAAGCGUUCACGUCGCAGUCCCUGUCAGAUUGUGGUGAAUCUGCGAAUACUGCUGUAUAUCUC, the self-cleavage was 0.12. As for UAACAGGGGGCCACAGCAGAAGCGUUCACGUCGCAACCCCUGUCAGAAUCUGGUGAAUCUGCGAAUUCUGCUGUAUAACUC, the figure is 0.05. Regarding UAACAGGGGGCCACAGCAGAAGCGUUCACGUCGCAACCCCUGUCAGAUUCUGGUGAAUCUGCGAAUUCCGCUAUAAAUCUC, the self-cleavage came out at 0.05. Take UAACAGGGGGCCACAGCAGAAGCGUUCACGUCGCUGCCCCUGUCAGAUUCUGGUGAAUCGGCGAAUCCUGCUGCAUAUCCC: the self-cleavage worked out at 0.13.

UAACAGGGGGCCACAGCAGAAGCGUUCACGUCGCAACCCCUGUCAGAUUCUGGUGAAUCAGCGAGUUCUGCUGUAUAUCUC: the self-cleavage is 0.07. As to UAACAGGGGGCCACAGCAGAAGCGUUCACGUCGCAGUCCCUGUCAGAUUCUGGUGAGUCUGCGUAUCCUGCUGUAUAUCUC, the self-cleavage was found to be 0.19.

Turning to UAACAGGGGGCCACAGCAGAAGCGUUCACGUCGCAGUCCCUGUCAGAUUCUAGUGAAUUUGCGAAUUCUGCUGUAUAUCUC, the self-cleavage came out at 0.69. Take UAACAGGGGGCCACAGCAGAAGCGUUCACGUCGCUGCCCCUGUCAGAUUCUGGUGAAUCUGCGAAUUCUGCCGUGUAUCUC: the self-cleavage worked out at 0.78. As for UAACAGGGGGCCACAGCAGAAGCGUUCACGUCGCAGGACCGGUCAGAUUCUGGUGAAUCUGCGAAUUCUGAUGUAUAUCUC, the figure is 0.18. On to UAACAGGGGGCCACAGCAGAAGCGUUCACGUCGCUGCCCCUGUCAGAUUCGGGUGAAUCUGCGAAUUCUGGUGUAUAUCUC, for which the self-cleavage amounted to 0.19. Regarding UAACAGGGGGCCACAGCAGAAGCGUUCACGUCGCUGCCCCUGUCAGAUUCCGGUGAAUCUGCGAAUUUUGCGGUAUAUCUC, the self-cleavage turned out to be 0.55. Take UAACAGGGGGCCACAGCAGAAGCGUUCACGUCGCAGUCCCUGCCAGAUCCUGGUGAAUCUGCGGAUUCUGCUGUAUAUCUC: the self-cleavage is 0.08.

Consider UAACAGGGGGCCACAGCAGAAGCGUUCACGUCGCUGCCCCUGUCAGAUUCUGGUGAAACUGCGAGUUCUGCAGUAUAUCUC, for which the self-cleavage came out at 0.07.

For UAACAGGGGGCCACAGCAGAAGCGUUCACGUCGCUGCCCCUGUCAGAUUCUGGUGAAUCUGCGAAUUCUGCCGUAUAUCAC, the self-cleavage was 0.27.

As for UAACAGGGGGCCACAGCAGAAGCGUUCACGUCGCUGCCCCUGUCAGAUCCUGGUGAAUCUGCGAAUUCUGCUGUAUAUCCC, the self-cleavage was 0.45.

In the case of UAACAGGGGGCCACAGCAGAAGCGUUCACGUCGCAGUCCCUGUCAGAUUCGGGUGAUUCUGCGAAUUCAGCUGUAUAUCUC, the self-cleavage turned out to be 0.09. As to UAACAGGGGGCCACAGCAGAAGCGUUCACGUCGCAGCACCUGUCAGAUUAUGGUGAAUCUGCGAAUUCAGCUGUAUAUCUC, the self-cleavage stood at 0.14. On to UAACAGGGGGCCACAGCAGAAGCGUUCACGUCGCACCCCUUGUCAGAUUCUGGUGAAUCUGCGAAUUCUGCUGUAUAUCAC, for which the self-cleavage is 0.3. As for UAACAGGGGGCCACAGCAGAAGCGUUCACGUCGCUGCCCCUGUCAGAUCCUGGUGAAUCUGCGAGUUCUGCUGUAUAUCAC, the self-cleavage was 0.06. Consider UAACAGGGGGCCACAGCAGAAGCGUUCACGUCGCUGCCCCUGUCAGACUCUGGCGAAUCUGCGAAUUCUGCUGUAUAUCUC, for which the self-cleavage was determined as 0.2. To UAACAGGGGGCCACAGCAGAAGCGUUCACGUCGCUGCCCCUGUCAGAUUCCGGUGAUUCUGCGAAUUCUGCUGUAUAUCUC belongs 0.12; to UAACAGGGGGCCACAGCAGAAGCGUUCACGUCGCUGCCCCUGUCAGAUUCCGGUGAAUCCGCGAAUUCAGCUGUAUAUCUC, 0.16; to UAACAGGGGGCCACAGCAGAAGCGUUCACGUCGCAGGCCCUGUCAGAUUCUGGUGAAUCUGCGUAUUCAGCUGUAUAUCUC, 0.08.

For UAACAGGGGGCCACAGCAGAAGCGUUCACGUCGCAACCCCUGUCAGAUUCAGGCGAAUCUGCGAAUUCUGCUGUAUAUCUC, the self-cleavage turned out to be 0.26. For the variant UAACAGGGGGCCACAGCAGAAGCGUUCACGUCGCUGCCCCUGUCAGAUUCCGGUGAAUCCGCGAAUUCUGCUGUAUAUCUC, the self-cleavage is 0.13. Consider UAACAGGGGGCCACAGCAGAAGCGUUCACGUCGCACCCCCUGUCAGAUUCUGGCGGAUCUGCGAAUUCUGCUGUAUAUCUC, for which the self-cleavage amounted to 0.16. Regarding UAACAGGGGGCCACAGCAGAAGCGUUCACGUCGCAGUCCCUGUCCGAUUCUGGUGAAUCUGCGAAUUCUGCUGUUUAUCUC, the self-cleavage was 0.28. On to UAACAGGGGGCCACAGCAGAAGCGUUCACGUCGCAACCCCCGUCAGAAUCUGGUGAAUCUGCGAAUUCUGCUGUAUGCCUC, for which the self-cleavage was found to be 0.05.

Turning to UAACAGGGGGCCACAGCAGAAGCGUUCACGUCGCUGCCCCUGUCAGAUUCUGGCGAAUCCGCGUAUUCUGCUGUACACCUC, the self-cleavage is 0.11. In the case of UAACAGGGGGCCACAGCAGAAGCGUUCACGUCGCAACCCAUUUCAGAUUCUGGUGAAUCUGCGAAUUCUGCUGUAUAUCUC, the self-cleavage was 0.07. Take UAACAGGGGGCCACAGCAGAAGCGUUCACGUCGCAGUCCCUGCCAGAUUCUGGUGAAUCUGCGAGUUCUGCUGUAUAUCUC: the self-cleavage was 0.1. As for UAACAGGGGGCCACAGCAGAAGCGUUCACGUCGCAGUCCCAGACAGAUUCUGGAGAAUCUGCGAAUUCUGCUGUAUAUCUC, the self-cleavage amounted to 0.1. For UAACAGGGGGCCACAGCAGAAGCGUUCACGUCGCAACCCCUGACAGAUUCUGGUGAAUCGGCGAAUUCUGCUGUAUAUCUC, the self-cleavage came out at 0.18.

The values above are taken from the RNAGym collection of RNA variant scans (doi:10.1093/nar/gkz1192).
